In assay [1] the target is T1, hPD-L1 (Homo sapiens, UniProt Q9NZQ7). Put plainly: ELISA EC50 analysis (target titration) of primary Z variants. The format is binding. The settings on record: periplasmic Z-ABD fusions captured on anti-ABD antibody; biotinylated hPD-L1 40 nM diluted 1:4 to 32 pM. The method, then: ELISA screening of Z variants: The binding of Z variants to hPD-L1 was analyzed in ELISA assays. Half-area 96-well ELISA plates (Costar, cat. no. 3690) were coated at 4° C. overnight with 2 μg/ml of an anti-ABD goat antibody (produced in-house) diluted in coating buffer (50 mM sodium carbonate, pH 9.6; Sigma, cat. no. C3041). The antibody solution was poured off and the wells were washed in water and blocked with 100 μl of PBSC (PBS supplemented with 0.5% casein; Sigma, cat. no. C8654) for 1 to 3 h at RT. The blocking solution was discarded and 50 μl periplasmic solutions, diluted 1:1 with PBST 0.05%, were added to the wells and incubated for 1.5 to 2.5 h at RT under slow agitation. As a blank control, PBST 0.05% was added instead of a periplasmic sample. The supernatants were poured off and the wells were washed 4 times with PBST 0.05%. Then, 50 μl of biotinylated hPD-L1 at a concentration of 0.32 nM in PBSC was added to each well. The plates were incubated for 1 h at RT followed by washes as described above. Streptavidin conjugated HRP (Thermo Scientific, cat. no. N100) diluted 1:30,000 in PBSC, was added to the wells and the plates were incubated for approximately 1 h. After washing as described above, 50 μl ImmunoPure TMB substrate (Thermo Scientific, cat. no. 34021) was added to the wells and the plates were treated according to the manufacturer's recommendations.
T1 sequence (Q9NZQ7 19-290): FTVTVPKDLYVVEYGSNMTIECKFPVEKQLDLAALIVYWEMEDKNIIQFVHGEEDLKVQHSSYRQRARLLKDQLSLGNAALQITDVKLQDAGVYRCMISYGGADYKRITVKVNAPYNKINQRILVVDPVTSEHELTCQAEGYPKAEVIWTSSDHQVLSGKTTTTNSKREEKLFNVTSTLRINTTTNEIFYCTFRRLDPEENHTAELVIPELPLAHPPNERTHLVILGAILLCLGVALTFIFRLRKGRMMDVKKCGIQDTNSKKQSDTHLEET
EC50 analysis of Z variants: A selection of PD-L1 binding Z variants was subjected to an analysis of the response against a dilution series of biotinylated hPD-L1 following the procedure described above. The Z variants were diluted 1:1 in PBST 0.05%. Biotinylated hPD-L1 was added at a concentration of 40 nM and diluted stepwise 1:4 down to 32 pM. As a background control, all Z variants were also assayed with no target protein added. Periplasm samples containing the PD-L1 binding Z variant Z13112 (SEQ ID.NO:777) were included on each plate and analyzed as positive control. […] Data were analyzed using GraphPad Prism 5 and non-linear regression, and EC50 values (the half maximal effective concentration) were calculated.

The target in assay [2] is T1, hPD-L1. Kind of assay: Biacore kinetic analysis of primary Z variants, hPD-L1. Type of assay: binding. To be noted: His6-tagged Z variants over immobilized hPD-L1; 1:1 model. The method, then:
Biacore kinetic and specificity analysis: Kinetic constants (ka and kd) and affinities (KD) for hPD-L1 were determined for 14 Hiss-tagged Z variants using a Biacore 2000 instrument (GE Healthcare). Some of the Z variants were also tested for binding against the sequence-related proteins hPD-L2, hB7-H3, hB7-H4 and mPD-L1 (mouse PD-L1 Fc Chimera, R&D Systems, cat. no. 1019-B7).
hPD-L1, hPD-L2, hB7-H3, hB7-H4 and mPD-L1 were immobilized in separate flow cells on the carboxylated dextran layer of different CM5 chip surfaces (GE Healthcare, cat. no. BR100012). The immobilization was performed using amine coupling chemistry according to the manufacturer's protocol and using HBS-EP as running buffer (0.01 M HEPES pH 7.4, 0.15 M NaCl, 3 mM EDTA, 0.005% v/v Surfactant P20, GE Healthcare, cat. no. BR100188). […] One flow cell surface on each chip was activated and deactivated for use as blank during analyte injections. In the kinetic experiment, HBS-EP was used as running buffer and the flow rate was 50 μl/min. The analytes, i.e. the Z variants, were each diluted in HBS-EP buffer within a concentration range of 1000 to 0.01 nM and injected for 5 min, followed by dissociation in running buffer for 15-25 min. After dissociation, the surfaces were regenerated with one or two injections of 0.1% SDS. Kinetic constants were calculated from the sensorgrams using the Langmuir 1:1 model of BiaEvaluation software 4.1 (GE Healthcare).
For orientation: SPR reads the build-up and loss of mass on a sensor chip optically.

The target of another assay is T2, hPD-L1 binding to hPD-1 (Homo sapiens, UniProt Q9NZQ7).
T2 construct: 1086-PD-050 (hPD-1)
T2 sequence (Q9NZQ7 19-239 limits assumed): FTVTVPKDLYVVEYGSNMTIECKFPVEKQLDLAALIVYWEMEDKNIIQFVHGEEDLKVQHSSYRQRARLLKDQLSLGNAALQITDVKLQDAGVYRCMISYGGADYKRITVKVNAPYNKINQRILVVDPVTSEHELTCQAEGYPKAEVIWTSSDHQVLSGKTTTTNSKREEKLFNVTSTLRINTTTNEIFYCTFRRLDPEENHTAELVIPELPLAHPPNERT
Kind of assay: AlphaLISA blocking assay (Example 3). To be noted: His6-tagged Z variants 250 nM to 12 pM; 10 nM biotinylated hPD-L1; read-out: IC50 (M), inhibiting binding of PD-L1 to PD-1. The method, then:
AlphaLISA blocking assay: The potential of Z variants to inhibit binding of PD-L1 to PD-1 was analyzed by AlphaLISA and recordings in an EnSpire multiplate reader 2300 (Perkin Elmer). hPD-1 (human PD-1 Fc-chimera; R&D Systems, cat. no. 1086-PD-050) was immobilized on AlphaLISA Acceptor beads (Perkin Elmer, cat. no. 6772002) according to the manufacturer's recommendations. Stepwise serial dilutions 1:3 of Hiss-tagged Z variants to final concentrations of 250 nM to 12 pM were made in a 384 plate (Perkin Elmer, cat. no. 6005350) and incubated for 1 h with 10 nM biotinylated hPD-L1 in AlphaLISA buffer (Perkin Elmer, cat. no. AL000F). hPD-1-coated Acceptor beads were added to a final concentration of 10 μg/ml and incubated for 1 h. Finally, streptavidin coated Donor beads (Perkin Elmer, cat. no. 6772002) were added to a final concentration of 40 μg/ml and incubated for 30 min. All incubations were performed at RT in the dark. The plate was analyzed in the EnSpire instrument and the IC50 values were calculated using GraphPad Prism 5.
On the technique in general: In Alpha technology, singlet oxygen from a donor bead excites a nearby acceptor bead.

Assay [3] concerns PD-L1 expressing THP-1 cells (IFNγ stimulated). Put plainly: Cell binding analysis by FACS, THP-1 cells. Type of assay: cell-based. To be noted: IFNγ stimulated THP-1 cells; 10 μg/ml His6-tagged Z variant (antibody 1 μg/ml); normalized against Z13091. The method, then: Cell binding analysis by FACS: The potential of Z variants to bind PD-L1 expressing cells was investigated using Fluorescence Activated Cell Sorting (FACS). THP-1 cells, cultivated in RPMI (Lonza, cat. no. BE12-702F) containing 10% FBS were stimulated with 10 ng/ml IFNg (R&D Systems, cat. no. 285-IF-100) overnight which results in up-regulation of PD-L1. 150,000 stimulated and unstimulated cells were pipetted per well of a v-bottomed 96 well plate (Nunc, cat. no. 277143) and the cells in the plate were subsequently pelleted at 400 g for 3 min at RT. The supernatants were removed and the cells were resuspended in 100 μl PBS plus 2.5% FBS (staining buffer) containing 10 μg/ml of the different His-tagged Z variants. […] Cells incubated with buffer alone were used as negative controls. The cells were incubated for 1 h at 8° C. in the dark, washed twice with 100 μl staining buffer and resuspended in 100 μl of staining buffer containing a goat anti-Z antibody (produced in house) at a concentration of 5 μg/ml. Cells stained with the positive control were treated with buffer only. The cells were incubated for 1 h at 8° C. in the dark, washed twice with 100 μl staining buffer and resuspended in 100 μl of staining buffer containing an Alexa Fluor 647 chicken anti-goat IgG antibody (Life technologies, cat. no. A21469) or an Alexa Fluor 647 goat anti-mouse IgG antibody (Life technologies cat. no. A21236). The cells were once again incubated for 1 h at 8° C. in the dark, washed twice with 100 μl staining buffer and resuspended in 200 μl of staining buffer. Data from 10,000 cells were obtained using a FACS Calibur ([…]) and the data was analyzed using Flowing software 2.5.0 (Turku University). Mean fluorescence intensity (MFI) was used as a read out of binding capacity.
On the technique in general: In flow cytometry, cells or beads pass a laser one at a time.

Experimental findings from patent publication US11155596B2, “Polypeptide” (AFFIBODY AB, priority 2016, dated 2021) are described below.

The EC50 is the concentration at which the effect is half-maximal. Lower therefore signals an effect from little substance. A word on the Kd: it is the equilibrium constant for the complex coming apart. What is called IC50 is the concentration at which inhibition is half-maximal.

Regarding “Z13112: primary PD-L1 binding Z variant (VDAKYAKERNAAAFEILTLPNLTNEQHWAFIWKLDDDPSQSSELLSEAKKLNDSQAPK; Engineered PD-L1 binding polypeptide)”, the EC50 with hPD-L1 [1] turned out to be 0.22 nM. In the assay with hPD-L1 [2], the Kd was found to be 2.5 nM, the “ka” value stood at 610000 M⁻¹ s⁻¹ and the “kd” value turned out to be 0.0015 s⁻¹. In the assay with hPD-L1 binding to hPD-1, the IC50 was determined as 3.9e-09 M. For the same substance, the “MFI (normalized)” value in assay [3] amounted to 0.76.
On to “Z13304: primary PD-L1 binding Z variant (VDAKYAKERNNAASEILALPNLTQLQYWAFIWKLADDPSQSSELLSEAKKLNDSQAPK; Engineered PD-L1 binding polypeptide)”, for which a half-maximal response in the assay with hPD-L1 [1] (EC50) required 0.32 nM. Besides, in the assay with hPD-L1 [2], the equilibrium dissociation constant (Kd) is 4.1 nM, the “ka” value is 1.6e+06 M⁻¹ s⁻¹ and the “kd” value was 0.0064 s⁻¹. For the same substance, the IC50 with hPD-L1 binding to hPD-1 worked out at 4.2e-08 M. In assay [3], the “MFI (normalized)” value stood at 0.75.
